The record followed here is ChEMBL document CHEMBL4888484, “Replenishing the malaria drug discovery pipeline: Screening and hit evaluation of the MMV Hit Generation Library 1 (HGL1) against asexual blood stage Plasmodium falciparum ,using a nano luciferase reporter read-out” (2022).

In all, about 150,000 compounds went through this assay and about 540 (0.36%) showed an effect of 50% or more. The list shows a part of the results.

This assay has as its system Plasmodium falciparum. The assay is described as follows: Primary screen in NF54 nanoGlo assay, in single point, at 2uM, 72h; a lower Z score goes with more inhibition. As to conditions: timepoint 72 hour. The assay is classed as functional, Erythrocyte.
What is called % Inhibition is the relative decrease from the control value, in per cent. `CCOC(=O)C1C(=O)NC2c3ccccc3OC3CCCC[C@]312` (stereo partly drawn): the “% Inhibition” value is listed as -7% and the Z score was found to be 0.93.

Regarding `CC(C)CC(=O)N(CCc1nc(-c2ccc(N(C)C)cc2)no1)C1CCCCC1`, the “% Inhibition” value is listed as -3% and the Z score is 0.37.

For `COc1ccccc1C(=O)N(Cc1cccc(OC)c1OCc1nc(CO)cs1)C1CC1`, the “% Inhibition” value is -8% and the Z score is reported as 1.4.

On to `CC(=Cc1ccccc1)CN(C)C[C@H]1CCOC1`, for which the “% Inhibition” value is listed as 0% and the Z score came out at 0.02.

In the case of `CCn1cc(S(=O)(=O)N2C[C@H](NC(C)=O)[C@@H](c3ccc(C)cc3)C2)cn1`, the “% Inhibition” value turned out to be 2% and the Z score is listed as -0.46.

On to `CCN(CCN1CCCC1)Cc1cc2c(cc1OC)OCCCO2`, for which the “% Inhibition” value was determined as 7% and the Z score is on record as -1.41.

`CCCn1cc(-c2cc(-c3cnc(N(C)C)nc3)c(C#N)c(N)n2)c(C)n1`: the “% Inhibition” value came out at 7% and the Z score is listed as -1.

As for `CCC[C@@]1(C(F)(F)F)CCCN1C(=O)c1cnc(C(C)(C)C)nc1`, the “% Inhibition” value is given as -10% and the Z score was found to be 1.3.

`CCS(=O)(=O)c1cc(F)ccc1NC(=O)N[C@@H]1C=CCCC1`: the “% Inhibition” value is -9% and the Z score is given as 1.31.

Regarding `CC1CN(C(=O)NC(C)c2csc(C3CC3)n2)CCO1` (stereo not drawn), the “% Inhibition” value is recorded as -3% and the Z score is recorded as 0.36.

With `O=C(CCC1CCN(Cc2nc3c(s2)CCCC3)CC1)Nc1ccccc1`, the “% Inhibition” value was -13% and the Z score was found to be 1.9.

For `COc1cccc(-c2nnc3c4ccccc4nc(N4CCC(Cc5ccccc5)CC4)n23)c1`, the “% Inhibition” value is recorded as -3% and the Z score came to 0.49.

Consider `C[C@H](Nc1cnn(C)c1)c1nc2ccccc2o1`, for which the “% Inhibition” value is on record as 10% and the Z score was -0.94.

`CN1CCN2CCN(C(=O)c3ccc4c(c3)ncn4CCO)C[C@H]2C1=O`: the “% Inhibition” value is recorded as -14% and the Z score is listed as 1.32.

On to `CC(C)CCn1c(CN2CCC[C@@](O)(CO)CC2)nc2ccccc21`, for which the “% Inhibition” value is reported as -12% and the Z score is 1.58.

With `O=C(CC1CC2CCC1C2)N1CCCC(CO)C1` (stereo not drawn), the “% Inhibition” value was -9% and the Z score was 1.32.

As for `Cc1ncsc1C(=O)NCC(F)(F)C(F)F`, the “% Inhibition” value came to 2% and the Z score is -0.24.

Turning to `CCn1ncc2c1NC(=O)C[C@@H]2c1[nH]cnc1C`, the “% Inhibition” value is recorded as -10% and the Z score was 1.22.

In the case of `CN(C)S(=O)(=O)c1ccc(-c2nc(-c3cnn(C)c3)cs2)cc1`, the “% Inhibition” value was -1% and the Z score is 0.14.

Take `CNc1nc([C@H]2CCOC2)cc(N2CCC(N3CCc4ccccc4C3)CC2)n1`: the “% Inhibition” value amounted to 10% and the Z score is on record as -1.32.

Consider `O=C(N[C@@H]1C2C=CC(C2)[C@H]1C(=O)N1CCCC1)OCc1ccccc1` (stereo partly drawn), for which the “% Inhibition” value is -17% and the Z score is on record as 1.95.

Turning to `COc1ccncc1NC(=O)c1ncsc1C(F)(F)F`, the “% Inhibition” value was found to be 3% and the Z score is -0.56.

For `O=C1N(CC2CC2)CCC[C@@]12CCN(c1nc(CO)cs1)C2`, the “% Inhibition” value was -2% and the Z score is 0.29.

On to `Cc1ccc(C)n1-c1nc2ccc(C(=O)NC3CC3)cc2s1`, for which the “% Inhibition” value amounted to 3% and the Z score is -0.42.
